The text below walks through data of PubChem BioAssay AID463173 (ICCB-Longwood Screening Facility, Harvard Medical School, 2010).

Screen size: about 52,000 compounds; about 4,300 (8.3%) were called active. Rule as the data show it: active = survival mostly below about 52% (no sharp cut-off); inactive = mostly above about 56%. The list shows a part of the results.

The experiment concerns DeltatarO mutant. Put plainly: growth inhibition of S. aureus wild type versus tarO mutant, primary screen, teichoic acid synthesis inhibitors, RN4220, OD600 (AID 463173). The following applies: OD600, 18 h, active compounds read low, screened at 18.75 µg/mL (by protocol).
In the case of `COc1ccc(-c2cc(C(F)(F)F)nc(SCC(=O)N3CCC(C)CC3)n2)cc1`, the survival is inactive: 56%.

Turning to `O=C(NCc1ccc(Cl)cc1)C1CCN(S(=O)(=O)Cc2ccccc2)CC1`, the survival was inactive: 72%. As to `Cc1ccc(CNC(=O)C2CCN(S(=O)(=O)c3cc(-c4noc(C)n4)ccc3C)CC2)cc1`, the survival was inactive: 124%. Regarding `CCOc1ccc(NC(=O)CC2C(=O)N(c3ccccc3)C(=O)N2Cc2ccc3c(c2)OCO3)cc1` (centres undefined), the survival is inactive: 79%. Regarding `Cc1nc2c(-c3ccccc3)c(C)nn2c(C)c1CCC(=O)NCc1ccc(F)cc1`, the survival was inactive: 94%. As for `Cc1c(Cl)cccc1-n1nc(C)c2c(C(=O)NCc3ccccc3)cc(C3CC3)nc21`, the figure is inactive: 69%; as for `O=S(=O)(NC1CC1)c1ccc(S(=O)(=O)N2CCC3(CC2)OCCO3)cc1`, inactive: 93%. As for `Cc1ccc(C(=O)Nc2nccs2)c(C)c1`, the figure is inactive: 101%; as for `Cn1c(=O)oc2cc(S(=O)(=O)Nc3ccccc3O)ccc21`, inactive: 130%. As for `O=C1C(Nc2ccccc2)=CC(c2ccc(Br)cc2)N1c1ccccc1` (centres undefined), the figure is inactive: 72%; as for `Cc1ccccc1CN1c2ccccc2S(=O)(=O)c2ccccc21`, inactive: 71%; as for `CC(=O)N1CCc2cc(S(=O)(=O)NC(Cc3ccccc3)C(=O)Nc3cccc(C)c3)ccc21` (centres undefined), inactive: 111%. As for `Cc1nc(NN)nc(NCc2ccccc2)n1`, the survival is inactive: 82%. As for `Oc1c(C(c2ccc(F)cc2)N2CCOCC2)sc2nc(-c3ccco3)nn12` (centres undefined), the figure is inactive: 73%. Consider `O=C(Cn1ncc2c([nH]c3ccccc32)c1=O)Nc1cccc(C(F)(F)F)c1`, for which the survival was inactive: 87%. As for `Cc1cc(C)cc(N2CC(c3nc(-c4cccc(Cl)c4)no3)CC2=O)c1` (centres undefined), the figure is active: 37%; as for `COc1ccc(CCNc2nccn(-c3ccc(C)c(C)c3)c2=O)cc1OC`, inactive: 94%; as for `Cc1ccc(CNCc2ccccc2)s1`, inactive: 144%. On to `CCc1ccc(N(CC(=O)NCC2CCCO2)S(C)(=O)=O)cc1` (centres undefined), for which the survival is active: 66%. On to `COc1ccc(C)cc1NC(=O)CSc1nc2ccccc2nc1N1CCOCC1`, for which the survival was inactive: 73%. As for `CC1CCCN(S(=O)(=O)c2ccc3[nH]c(=O)cc(C(=O)NCCc4ccc(Cl)cc4)c3c2)C1` (centres undefined), the figure is inactive: 69%; as for `CCOCCCN(C(=O)Nc1ccc(Cl)cc1)C1CCN(C(C)=O)CC1`, inactive: 83%; as for `O=C(COc1ccc(Cl)cc1)Nc1nnc2n1CCS2`, inactive: 124%. As for `COc1cc(OC)cc(-c2nc(-c3cccc(C)c3)no2)c1`, the figure is active: -3%; as for `Cc1cc(-c2ccccc2)n2ncc(C#N)c2n1`, inactive: 96%; as for `COc1ccc(N2CCN(C(CNC(=O)C(=O)NCCc3ccccc3)c3cccnc3)CC2)cc1` (centres undefined), inactive: 61%. As for `COc1ccc(C)cc1NC(=O)NCc1cccn1Cc1ccccc1`, the figure is inactive: 77%; as for `COc1ccccc1NC(=O)CN(C)S(=O)(=O)c1ccc2c(c1)c(=O)n(C)c(=O)n2C`, inactive: 85%. As to `O=C(NCc1ccccc1)c1ccc2nc(CCc3ccccc3)oc2c1`, the survival is active: 0%. As for `Cc1ccc(CCNC(=O)NCc2noc3ccccc23)cc1`, the figure is inactive: 102%; as for `Cc1ccc(CN2CCC(CNC(=O)Nc3cccc(Cl)c3C)C2)cc1` (centres undefined), inactive: 75%; as for `CC(C)(C)c1ccc(C(=O)Nc2cc(-c3nc4ccccc4o3)ccc2Cl)cc1`, active: 13%. As for `CCc1ccccc1NC(=O)c1ccc2c(c1)CCN2S(C)(=O)=O`, the figure is inactive: 69%; as for `CCc1ccccc1NC(=O)C1CCN(S(=O)(=O)c2ccc3[nH]c(=O)ccc3c2)CC1`, inactive: 118%. As for `COc1ccc(Cc2nc3ccc(C(=O)NCc4ccc(OC)cc4OC)cc3o2)cc1`, the figure is inactive: 75%; as for `Cc1noc(C)c1S(=O)(=O)N1CCC(C(=O)Nc2ccc(Br)cc2)CC1`, inactive: 90%; as for `COc1ccc2nc(Cl)c(CNCCN(C)C)c(N3CCCCC3)c2c1`, inactive: 94%. With `COc1ccc(CNC(=O)c2nc(Cn3nc(C)c(Br)c3C)no2)cc1OC`, the survival was inactive: 82%.

As to `COc1cc(NC(=O)c2sc3nc4n(c(=O)c3c2C)CCCCC4)cc(OC)c1OC`, the survival was active: 42%.

As to `CC(C)c1ccc(NC(=O)c2ccc(F)c(S(=O)(=O)N3CCCCCC3)c2)cc1`, the survival was inactive: 79%.

As for `CN1/C(=C2/SC(=S)N(N)C2=O)Sc2ccccc21`, the survival was inactive: 94%. As for `COc1ccc(S(=O)(=O)NCCc2csc3nc(-c4ccc(OC)c(OC)c4)nn23)cc1C`, the figure is inactive: 92%. As for `Cn1c(SCC(=O)NC(C)(C)C)nnc1-c1ccccc1`, the figure is inactive: 92%; as for `O=C1CCSc2ccc(S(=O)(=O)Nc3ccc(Cl)c(C(F)(F)F)c3)cc2N1`, inactive: 72%. As for `COc1ccc(-c2nc(C(=O)Nc3ccc(C(C)=O)cc3)nn2-c2cccc(Cl)c2)cc1`, the figure is active: 46%. Turning to `COc1ccc(N2CCN(S(=O)(=O)c3c(C)[nH]c(=O)[nH]c3=O)CC2)cc1`, the survival was inactive: 73%. As for `CCN(C(=O)c1cc2cc3ccc(OC)cc3nc2o1)c1cccc(C)c1`, the figure is active: 6%; as for `O=S(=O)(NC1CC1)c1ccc(S(=O)(=O)N2CCCc3ccccc32)cc1`, inactive: 51%.

For the compound `CC1CCN(c2nn3c(=O)c(C(=O)NCCCOC(C)C)cnc3s2)CC1`, the survival is inactive: 124%. With `Cc1c(C(=O)OCc2ccccc2)[nH]c2c1C(=O)CC(c1ccc(C(C)(C)C)cc1)C2` (centres undefined), the survival is inactive: 91%.

With `CCc1cccc(NC(=O)c2cc3c(=O)n(Cc4ccccc4)ccc3nc2C)c1`, the survival was inactive: 71%. As for `Cc1ccc(CN2CCCn3nc(C(=O)NCCc4ccccc4C)cc3C2=O)cc1`, the figure is inactive: 87%; as for `COc1cc(C(=O)Nc2ccccc2-c2nc(-c3ccccc3)no2)cc(OC)c1OC`, inactive: 66%; as for `CC(C)c1ccc(NC(=O)C2CCN(C(=O)c3ccc(F)cc3)CC2)cc1`, inactive: 61%. As for `CC(=O)c1cccc(NC(=O)C2CCN(S(=O)(=O)c3ccc4c(c3)CCCN4C(C)=O)CC2)c1`, the figure is inactive: 101%. As for `Cc1ccc(-c2nc(C)c(CCNC(=O)c3cccs3)s2)cc1`, the figure is inactive: 91%; as for `NC(=O)CSc1nnc2c(n1)[nH]c1ccc(Cl)cc12`, inactive: 103%.

With `CC(C)(C)C1CCc2c(sc(NC(=O)c3cc4ccccc4c(=O)o3)c2C(N)=O)C1` (centres undefined), the survival was active: 44%.

In the case of `CCCCCOc1ccc(/C=C/C(=O)Nc2sc(C)c(C)c2C(=O)OCC)cc1OC`, the survival was inactive: 117%.
